# PubChem BioAssay AID686979 (National Center for Advancing Translational Sciences (NCATS), 2013)
# Hit rate of the full screen: of about 420,000 compounds, about 50,000 (12%) were called active. Roughly 26% stayed inconclusive and do not appear here. The call rests on the fitted dose curve; in most records, active means well fitted inhibition curve with a large enough effect; inconclusive means small, poorly fitted or top-dose-only effect; inactive means flat fitted curve, though single readings scatter. This is a selection; strong and weak results do not stand in their true shares.
# Assay: qHTS for Inhibitors of human tyrosyl-DNA phosphodiesterase 1 (TDP1): qHTS in cells in presence of CPT; further: nearly all actives have a fitted effect of over 55% in size
# Conditions: chicken DT40 Tdp1-/-;hTDP1 cells + 20 nM CPT, ATP luminescence, 48 h; series mostly up to 46.2 µM; activity change, negative = growth inhibition: at the top concentration
# Method in brief: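 Chicken DT40 Tdp1-/- cells stably complemented with human TDP1 were seeded at 400 cells/well in medium containing 20 nM camptothecin, exposed to pin-transferred compounds, and grown at 37 °C for at least 48 hr. Viability was read as ATP luminescence.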
# On the % scale 0 is the no-effect control and ±100 the full control effect; potency means the concentration at half of the fitted maximal effect.
Compound,Potency,"activity change, negative = growth inhibition"
CCCCCCCC/C=C\CCCCCCCC(=O)NCCc1ccc(O)c(O)c1,active: 1.03 µM,
COc1cccc(CN2CCC2(C)C(=O)Nc2cccc(Oc3ccccc3)c2)c1F (centres undefined),active: 10.3 µM,
CCCCN1CC[C@H]2C=CC[C@@H](C(=O)N3CCN(c4ccccc4)CC3)[C@H]2C1=O,,inactive: -7.33%
C[C@]12CC[C@@H]3c4ccc(O)cc4CC[C@H]3[C@@H]1CCC2=O,inactive,
CCCCC(=O)NC1(C(F)(F)F)NC(=O)N(Cc2ccccc2)C1=O (centres undefined),,inactive: 33.7%
CC(C)Oc1ccc(CN2CCC2(C)C(=O)Nc2cccc3cccnc23)cc1 (centres undefined),active: 18.4 µM,
N#C/C(=C\c1cccs1)c1nc2ccccc2[nH]1,,inactive: -18.5%
O=C(O)CS(=O)CC(=O)NCc1cccc(C(F)(F)F)c1 (centres undefined),,inactive: 36.8%
Fc1cccc(CN2CCSCC2)c1,,inactive: 47.8%
O=C(NNC(=O)c1ccc2c(=O)n3c(nc2c1)CCC3)c1ccc(Cl)cc1,,inactive: 34%
Cc1cc(C(=O)OCC(=O)NNC(=O)c2cccs2)ccc1[N+](=O)[O-],,inactive: 33.1%
Cc1ccccc1C(=O)c1cccn1CC(=O)NCc1ccc(Cl)cc1,,inactive: -2.32%
Cc1cccc(C)c1NC(=O)CN1C(=O)CCSc2ccc(S(=O)(=O)N3CCCC3)cc21,,inactive: -11.1%
COc1ccc([C@@H]2C[C@H](c3ccccc3)Oc3cc(OC)c(OC)c(OC)c32)cc1,,inactive: -24%
Cc1cc(C)c2c(CN3CCC(C)CC3)cc(=O)oc2c1,,inactive: 12.5%
CCOc1ccc(Nc2nc3ccccc3c3nnc(CC)n23)cc1,active: 14.6 µM,
Cc1ccc(CCNC(=O)c2sc3ncccc3c2-n2c(C)ccc2C)cc1,active: 11.6 µM,
Cc1cccc(/C=N\NC(=O)c2csnn2)c1,,inactive: 30.5%
Cn1nc(C(=O)N2CCN(c3ccccc3)CC2)c2c1-c1ccccc1S(=O)(=O)C2,,inactive: -19%
CCOC(=O)N1CCN(c2c(NCc3ccc(Cl)cc3)c(=O)c2=O)CC1,active: 4.11 µM,
O=c1c2c([nH]n1-c1ccccc1)CCCC2,,inactive: 34.7%
O=C1C(Nc2ccccc2)=C(N2CCCCC2)C(=O)c2ccccc21,active: 18.4 µM,
CCOc1ccc(CCNC(=O)C(C)n2nc(C)n3c(cc4occc43)c2=O)cc1OCC (centres undefined),,inactive: -17.1%
O=S1(=O)N[C@H](Cc2ccccc2)COc2cc(N3CCC[C@H]3CO)ccc21,,inactive: -21.3%
CCCCCCCCCC[N+](C)(C)CC/C=C1/c2ccccc2Sc2ccc(Cl)cc21,active: 5.17 µM,

Compound,Potency,"activity change, negative = growth inhibition"
O=C1N(c2ccccc2)c2ccccc2C1(Cc1ccncc1)Cc1ccncc1,,inactive: -38.1%
CS(=O)(=O)Nc1ccc(C(=O)NC2CCCCC2)cc1,,inactive: -2.38%
COC(=O)c1ccc(CSc2nc3c(c(=O)[nH]2)CCC3)cc1,,inactive: -28.7%
COc1cccc(-c2cc(C(=O)Nc3ccn(Cc4ccc(C)cc4)n3)no2)c1,,inactive: -25.3%
COc1cccc(C(=O)CC2(O)C(=O)N(Cc3ccccc3)c3ccccc32)c1 (centres undefined),active: 6.51 µM,
COc1ccc(C(=O)NNS(=O)(=O)c2ccc(C)cc2)cc1,,inactive: 13.4%
CCN1/C(=C/C(=S)Nc2ccccc2)Sc2ccccc21,,inactive: -77.9%
CC1CCN(S(=O)(=O)c2ccc(NC(=O)[C@@H]3CCCC[C@@H]3C(=O)O)cc2)CC1,,inactive: 4.62%
OCC[C@H]1C[C@H](O)[C@@H](O)[C@]2(CCCO2)O1,,inactive: -20.8%
COCCCn1c(=O)c2sccc2n2c(CCCC(=O)NCc3cccc(OC)c3)nnc12,,inactive: -3.02%
O=C1CC(NCC2CCCO2)C(=O)N1c1ccc(F)cc1 (centres undefined),,inactive: 4.26%
O=C1/C(=C\c2ccccn2)SC(=S)N1Nc1ncc(C(F)(F)F)cc1Cl,,inactive: -26.7%
CN(CCOc1ccc(CC2SC(=O)NC2=O)cc1)c1ccccn1 (centres undefined),inactive,
C[C@H](N=C(NC#N)Nc1ccncc1)C(C)(C)C,,inactive: -26.2%
CCC1Oc2ccccc2N(CC(=O)NCCC2=CCCCC2)C1=O (centres undefined),active: 16.4 µM,
O=C(CCN1C(=O)/C(=C\c2cccs2)SC1=S)Nc1ccccn1,,inactive: -21%
O=C(NC1CC1)C1=C[C@H](c2ccc(C(F)(F)F)cc2)C[C@H](OCCCCO)O1,,inactive: -8.5%
COc1ccccc1-c1nc(C(=O)NCC2CCCO2)cc2c1[nH]c1ccccc12 (centres undefined),active: 20.6 µM,
Cc1ccc(NC(=O)c2ccc(CN3CC(=O)N4CCCCC4C3=O)cc2)c(C)c1 (centres undefined),,inactive: -17.2%
O=C(Cn1ncn2c(cc3ccccc32)c1=O)NCc1ccc(F)cc1,active: 5.8 µM,
Cc1c(NC(=O)CC(C)C)c(=O)n(-c2ccccc2)n1C,,inactive: 34.3%
COCCNC(=O)/C(C#N)=C/C=C/c1ccccc1[N+](=O)[O-],active: 10.3 µM,
N[C@@H](C(=O)N[C@@H]1C(=O)N2C(C(=O)O)=C(Cl)CS[C@H]12)c1ccccc1,,inactive: 5.57%
C[C@@H]1CN([C@@H](C)CO)C(=O)CCCn2nncc2CO[C@@H]1CN(C)S(=O)(=O)c1ccc(Cl)cc1,,inactive: -0.887%
